# From the supplement of paper PMC8728848
# The list shows a part of the results.
# Assays:
# Experiment in all cases: glycan array binding signal (z-score within array); higher = stronger binding
# Settings in all cases: glycan notation: IUPAC condensed, linker removed; mutation: E227G
# [1] = molecular target: Fuc(a1-2)[Gal(a1-3)]Gal(b1-4)GlcNAc(b1-2)Man(a1-3)[Fuc(a1-2)[Gal(a1-3)]Gal(b1-4)GlcNAc(b1-2)Man(a1-6)]Man(b1-4)GlcNAc(b1-4)GlcNAc
# Procedure, shortened: (§1)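 Columns mapping to the same glycan were averaged after glycan names were converted to IUPAC-condensed notation. The data come from 3228 arrays in the Consortium for Functional Glycomics database, limited to those with an available protein sequence. Binding is reported as a within-array Z-score averaged across arrays of one protein sequence and across linkers.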
# [2] = molecular target: Fuc(a1-2)[Gal(a1-3)]Gal(b1-4)GlcNAc(b1-2)Man(a1-3)[Fuc(a1-2)[Gal(a1-3)]Gal(b1-4)GlcNAc(b1-2)Man(a1-6)]Man(b1-4)GlcNAc(b1-4)[Fuc(a1-6)]GlcNAc
# Procedure, shortened: as §1
# [3] = molecular target: Fuc(a1-2)[Gal(a1-3)]Gal(b1-4)GlcNAc(b1-3)GalNAc
# Procedure, shortened: as §1
# [4] = molecular target: Fuc(a1-2)[Gal(a1-3)]Gal(b1-4)GlcNAc(b1-3)[Fuc(a1-2)[Gal(a1-3)]Gal(b1-4)GlcNAc(b1-6)]GalNAc
# Procedure, shortened: as §1
# [5] = molecular target: Fuc(a1-2)[Gal(a1-3)]Gal(b1-4)GlcNAc(b1-6)GalNAc
# Procedure, shortened: as §1
# [6] = molecular target: Fuc(a1-2)[Gal(a1-3)]Gal(b1-4)[Fuc(a1-3)]Glc
# Procedure, shortened: as §1
# [7] = molecular target: Fuc(a1-2)[Gal(a1-3)]Gal(b1-4)[Fuc(a1-3)]GlcNAc
# Procedure, shortened: as §1
# [8] = molecular target: Fuc(a1-2)[Gal(a1-3)]Gal(b1-4)[Fuc(a1-3)]GlcNAc(b1-3)GalNAc
# Procedure, shortened: as §1
# [9] = molecular target: Fuc(a1-2)[Gal(a1-4)]Gal(b1-4)GlcNAc
# Procedure, shortened: as §1
# [10] = molecular target: Fuc(a1-2)[GalNAc(a1-3)]Gal
# Procedure, shortened: as §1
# [11] = molecular target: Fuc(a1-2)[GalNAc(a1-3)]Gal(b1-3)GalNAc(a1-3)[Fuc(a1-2)]Gal(b1-4)GlcNAc
# Procedure, shortened: as §1
# [12] = molecular target: Fuc(a1-2)[GalNAc(a1-3)]Gal(b1-3)GalNAc(b1-3)Gal(a1-4)Gal(b1-4)Glc
# Procedure, shortened: as §1
# [13] = molecular target: Fuc(a1-2)[GalNAc(a1-3)]Gal(b1-3)GlcNAc
# Procedure, shortened: as §1
# [14] = molecular target: Fuc(a1-2)[GalNAc(a1-3)]Gal(b1-3)GlcNAc(b1-2)Man(a1-3)[Fuc(a1-2)[GalNAc(a1-3)]Gal(b1-3)GlcNAc(b1-2)Man(a1-6)]Man(b1-4)GlcNAc(b1-4)GlcNAc
# Procedure, shortened: as §1
# [15] = molecular target: Fuc(a1-2)[GalNAc(a1-3)]Gal(b1-3)GlcNAc(b1-2)Man(a1-3)[Fuc(a1-2)[GalNAc(a1-3)]Gal(b1-3)GlcNAc(b1-2)Man(a1-6)]Man(b1-4)GlcNAc(b1-4)[Fuc(a1-6)]GlcNAc
# Procedure, shortened: as §1
# [16] = molecular target: Fuc(a1-2)[GalNAc(a1-3)]Gal(b1-3)GlcNAc(b1-3)GalNAc
# Procedure, shortened: as §1
# [17] = molecular target: Fuc(a1-2)[GalNAc(a1-3)]Gal(b1-3)GlcNAc(b1-6)GalNAc
# Procedure, shortened: as §1
# [18] = molecular target: Fuc(a1-2)[GalNAc(a1-3)]Gal(b1-4)Glc
# Procedure, shortened: as §1
# [19] = molecular target: Fuc(a1-2)[GalNAc(a1-3)]Gal(b1-4)GlcNAc
# Procedure, shortened: as §1
# [20] = molecular target: Fuc(a1-2)[GalNAc(a1-3)]Gal(b1-4)GlcNAc(b1-2)Man
# Procedure, shortened: as §1
# [21] = molecular target: Fuc(a1-2)[GalNAc(a1-3)]Gal(b1-4)GlcNAc(b1-2)Man(a1-3)[Fuc(a1-2)[GalNAc(a1-3)]Gal(b1-4)GlcNAc(b1-2)Man(a1-6)]Man(b1-4)GlcNAc(b1-4)GlcNAc
# Procedure, shortened: as §1
# [22] = molecular target: Fuc(a1-2)[GalNAc(a1-3)]Gal(b1-4)GlcNAc(b1-2)Man(a1-3)[Fuc(a1-2)[GalNAc(a1-3)]Gal(b1-4)GlcNAc(b1-2)Man(a1-6)]Man(b1-4)GlcNAc(b1-4)[Fuc(a1-6)]GlcNAc
# Procedure, shortened: as §1
# [23] = molecular target: Fuc(a1-2)[GalNAc(a1-3)]Gal(b1-4)GlcNAc(b1-3)Gal(b1-4)GlcNAc
# Procedure, shortened: as §1
# [24] = molecular target: Fuc(a1-2)[GalNAc(a1-3)]Gal(b1-4)GlcNAc(b1-3)Gal(b1-4)GlcNAc(b1-3)Gal(b1-4)GlcNAc
# Procedure, shortened: as §1
# [25] = molecular target: Fuc(a1-2)[GalNAc(a1-3)]Gal(b1-4)GlcNAc(b1-3)GalNAc
# Procedure, shortened: as §1
# [26] = molecular target: Fuc(a1-2)[GalNAc(a1-3)]Gal(b1-4)GlcNAc(b1-3)[Fuc(a1-2)[GalNAc(a1-3)]Gal(b1-4)GlcNAc(b1-6)]GalNAc
# Procedure, shortened: as §1
# [27] = molecular target: Fuc(a1-2)[GalNAc(a1-3)]Gal(b1-4)GlcNAc(b1-6)GalNAc
# Procedure, shortened: as §1
# [28] = molecular target: Fuc(a1-2)[GalNAc(a1-3)]Gal(b1-4)[Fuc(a1-3)]GlcNAc
# Procedure, shortened: as §1
# [29] = molecular target: Fuc(a1-2)[GalNAc(a1-3)]Gal(b1-4)[Fuc(a1-3)]GlcNAc(b1-3)GalNAc
# Procedure, shortened: as §1
# [30] = molecular target: Fuc(a1-2)[GalNAc(a1-4)]Gal(b1-4)GlcNAc
# Procedure, shortened: as §1
binder,measurement,setting,value
"Epa1-NP-mutant-E227G (Candida glabrata), Q6VBJ0 (protein) MILNPALFLNKCVCIYTTLILLLLTNGGYATSSNDISLASKDPTTFPLGCSPDITTPKKGLSMELYSYDFRKKGSYPCWDAAYLDPNYPRTGYKSHRLLAKVDGVTGNINFYYHATKGCTPQLGHLPASYNYPKPLTMTNFTMLLYGYFRPKVTGFHTFTISADDLLFVNFGAGNAFDCCRRDSSADHFGNYQAYAIWGSKTAKDELTVHLDAGVYYPIRLFYNNRGYDGALSFTFKTESNENTVSDFSEYFFSLDDTEEGCPGLISYDSSCASVKTSKIIGIDYHTETPNENLVPITKTIYHLGIPCTGTTTTPLCGSGFYDPLANKCVTINTSSTSSVTKTTSHTTSKEVSFHSSISSQKTLIPKSIPSPYGPIKSQSIPTEMETSSEISSSEYAFSDVISTPSHSPYTKKHSSLNSSSYTSTVIHSLTSYSISQGIFSTSLSEQNITSKSSTDKFSTATSMSNNITQSSIIISQFSTNNENYTTTSMHTSSDKISTETLNNSISTTTSILFSNSSTILKNNTTIISSDKDTHYHPVNPTIVCSTNKTEIICASITQPSISNSNNHWSSSVLKFNSTTVRSTLPSSAGSNETSINVPFSSSTESNTSTSSTSTSNSKMVRSTLPSSAGSNETSISVPFSSSTESNTSTSSTSTSNSKMVRSTLPSSAGSNETSINVPFSSSTESNTSTSSTSTSNSKTVRSTPFSSAGIIMTSLSQRNNKSASSYASSNSKCYNTADSCRKVHSTPSYLLTSSYTSEGVDYDCSLVSTKLKINDTNCVNNKHTTKSCLKTSVTTTIPTLEIKTARKSSSNTIGLHSYPTSSPNKSISSAPIIGYISSFKTIKTASPSYQTSDLTTITTITSLNNPGSTAVENTHESNDKSRKTSSNDISSKHSVIKETKDAVESSNKSHQTNTLKCSSIIIASSSHNSYESLGGTTLTLTLSKVYSPQNNDTLPFLEISEVNPSRTVLPESSKMMQYLTSTEERNKTARNTIATNIVSISTFHFEGEGNAIRMGYTQLLLMLIGIIVMNIGT",glycan array binding signal (z-score),[1],0.109
same,glycan array binding signal (z-score),[2],-0.133
same,glycan array binding signal (z-score),[3],-0.236
same,glycan array binding signal (z-score),[4],-0.138
same,glycan array binding signal (z-score),[5],-0.253
same,glycan array binding signal (z-score),[6],-0.21
same,glycan array binding signal (z-score),[7],-0.183
same,glycan array binding signal (z-score),[8],-0.239
same,glycan array binding signal (z-score),[9],0.045
same,glycan array binding signal (z-score),[10],-0.161
same,glycan array binding signal (z-score),[11],-0.104
same,glycan array binding signal (z-score),[12],-0.175
same,glycan array binding signal (z-score),[13],-0.104
same,glycan array binding signal (z-score),[14],-0.222
same,glycan array binding signal (z-score),[15],-0.164
same,glycan array binding signal (z-score),[16],-0.086
same,glycan array binding signal (z-score),[17],-0.14
same,glycan array binding signal (z-score),[18],-0.019
same,glycan array binding signal (z-score),[19],-0.278
same,glycan array binding signal (z-score),[20],-0.022
same,glycan array binding signal (z-score),[21],0.028
same,glycan array binding signal (z-score),[22],-0.199
same,glycan array binding signal (z-score),[23],-0.278
same,glycan array binding signal (z-score),[24],-0.043
same,glycan array binding signal (z-score),[25],-0.303
same,glycan array binding signal (z-score),[26],-0.263
same,glycan array binding signal (z-score),[27],-0.271
same,glycan array binding signal (z-score),[28],-0.261
same,glycan array binding signal (z-score),[29],-0.151
same,glycan array binding signal (z-score),[30],-0.097
